Measured values from PubChem BioAssay (NCATS).
Several values for one entry are separate records, joined by “and”; a condition that tells them apart may be missing. Equal values may be shown once. The inconclusive results got no clear call from the source; some entries with a clear call stand among them for comparison. For some of these results: Where the call is inconclusive, the potency comes from a doubtful curve fit. Activity calls are given as the source filed them. Unless noted, calls come from the whole dose curve; as a rule, active = well fitted curve in the direction sought with a large enough effect in the repeat runs; inconclusive = weak or mixed curves; inactive = no such curve, though single readings can be large; an effect the other way counts as inactive or inconclusive.

How the values were obtained:
[1] = Primary qHTS for small molecule stabilizers of the endoplasmic reticulum resident proteome: Secreted ER Calcium Modulated Protein (SERCaMP) assay (AID 1508630; active = well fitted curve in the direction sought with a large enough effect; inconclusive = small, poorly fitted or top-dose-only effect, or another doubt; inactive = no such curve, though single readings can be large; an effect the other way counts as inactive or inconclusive); details: SH-SY5Y GLuc-SERCaMP (Gaussia luciferase released on ER calcium loss) secretion, thapsigargin, luminescence; series mostly up to 38.4 µM
How it was run: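 GLuc-SERCaMP-expressing SH-SY5Y cells, pretreated 16 h with compound, are challenged with thapsigargin to empty ER calcium stores; after 4 h, coelenterazine is added directly to the medium and luminescence is imaged.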

[2] = molecular target: Cytochrome P450 2D6 (Homo sapiens) (UniProt P10635); assay: Cytochrome P450 family 2 subfamily D member 6 (CYP2D6) small molecule antagonists: luciferase biochemical (cell-free) qHTS assay (AID 1645840); note: nearly all actives have a fitted effect of over 55% in size
How it was run: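 P450-Glo luminescent screen: recombinant CYP2D6 enzyme–proluciferin substrate mix preincubated with compound 10 min at room temperature, then NADPH regeneration added for 1 h at room temperature. Detection reagent added for 20 min; luciferin light read as relative luminescence units.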

[3] = molecular target: Cytochrome P450 2C9 (Homo sapiens) (UniProt P11712); assay: Cytochrome P450 family 2 subfamily C member 9 (CYP2C9) small molecule antagonists: luciferase biochemical (cell-free) qHTS assay (AID 1645842); note: nearly all actives have a fitted effect of over 55% in size
How it was run: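 Luminescence, after 20 min with luciferin detection reagent, reflected CYP2C9 turnover during a 1 h NADPH-driven reaction at 37C. Enzyme-substrate mix contained 0.4% bovine serum albumin and was preincubated with compound 10 min at room temperature.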

[4] = molecular target: Cytochrome P450 3A4 (Homo sapiens) (UniProt P08684); assay: Cytochrome P450 family 3 subfamily A member 4 (CYP3A4) small molecule antagonists: luciferase qHTS assay (AID 1645841); note: nearly all actives have a fitted effect of over 45% in size
How it was run: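 P450-Glo CYP3A4 enzyme with proluciferin substrate preincubated 10 min with compound at room temperature, then NADPH regeneration 1 h. Luciferin detection reagent added for 20 min; luminescence recorded. Ketoconazole positive control.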

[5] = A High-Content qHTS Against Drug Library for the Identification of Small Molecules that Inhibit DYT1 Early Onset Primary Dystonia-Associated Cell Pathology (AID 1645839; calls by dose curve)
How it was run: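 Flp-In T-REx 293 cells with tetracycline-inducible EGFP-delE hTOR1A (WT EGFP-hTOR1A as reference), 800 cells/well; compound added with tetracycline, 48 h at 37 C. Fixed, permeabilized cells imaged; %pathology (punctate TorsinA) primary, cell count counterscreen.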

[6] = Cytotoxicity counterscreen for inhibitors of SARS-CoV-2 cell entry (AID 1645845; calls by dose curve; note: nearly all actives have a fitted effect of over 50% in size); details: activity change, negative = cytotoxicity: at 57.1 µM (top of the series) unless noted
How it was run: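 HEK293-ACE2 cells (Expi293F stably expressing human ACE2) seeded overnight, then compound for 1 h plus 48 h at 37C. Viability as ATP content by luminescence; normalized to wells with cells and media-only wells.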
Potency is the fitted concentration of half-maximal effect; tags give direction and shape of the fitted curve.

Sequence of UniProt P10635 (P10635 whole entry, looked up): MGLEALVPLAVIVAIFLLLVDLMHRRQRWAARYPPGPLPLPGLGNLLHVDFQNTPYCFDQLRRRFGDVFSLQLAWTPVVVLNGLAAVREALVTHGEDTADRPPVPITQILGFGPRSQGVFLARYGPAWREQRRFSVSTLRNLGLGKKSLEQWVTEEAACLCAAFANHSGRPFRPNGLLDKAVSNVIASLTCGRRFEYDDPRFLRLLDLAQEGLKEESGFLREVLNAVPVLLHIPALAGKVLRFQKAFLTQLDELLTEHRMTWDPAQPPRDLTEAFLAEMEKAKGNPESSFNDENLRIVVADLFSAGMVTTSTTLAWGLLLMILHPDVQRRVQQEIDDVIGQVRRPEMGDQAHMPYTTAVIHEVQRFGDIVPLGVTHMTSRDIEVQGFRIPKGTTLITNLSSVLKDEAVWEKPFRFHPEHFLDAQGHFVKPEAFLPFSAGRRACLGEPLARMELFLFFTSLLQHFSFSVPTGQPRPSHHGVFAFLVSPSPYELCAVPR
Sequence of UniProt P11712 (P11712 whole entry, looked up): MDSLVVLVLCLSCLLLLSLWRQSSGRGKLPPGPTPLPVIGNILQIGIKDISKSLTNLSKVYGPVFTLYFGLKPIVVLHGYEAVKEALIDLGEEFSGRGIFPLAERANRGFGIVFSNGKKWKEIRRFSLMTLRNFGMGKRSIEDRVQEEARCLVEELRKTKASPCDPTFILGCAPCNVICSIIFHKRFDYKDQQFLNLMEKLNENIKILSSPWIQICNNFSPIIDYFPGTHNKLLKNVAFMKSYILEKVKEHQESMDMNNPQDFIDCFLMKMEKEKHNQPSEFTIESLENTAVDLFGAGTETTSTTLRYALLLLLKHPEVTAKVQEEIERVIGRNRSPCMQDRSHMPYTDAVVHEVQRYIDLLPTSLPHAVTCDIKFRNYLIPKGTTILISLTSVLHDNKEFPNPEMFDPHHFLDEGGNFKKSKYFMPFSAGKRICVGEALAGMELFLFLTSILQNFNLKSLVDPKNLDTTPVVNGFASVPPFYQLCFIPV
Sequence of UniProt P08684 (P08684 whole entry, looked up): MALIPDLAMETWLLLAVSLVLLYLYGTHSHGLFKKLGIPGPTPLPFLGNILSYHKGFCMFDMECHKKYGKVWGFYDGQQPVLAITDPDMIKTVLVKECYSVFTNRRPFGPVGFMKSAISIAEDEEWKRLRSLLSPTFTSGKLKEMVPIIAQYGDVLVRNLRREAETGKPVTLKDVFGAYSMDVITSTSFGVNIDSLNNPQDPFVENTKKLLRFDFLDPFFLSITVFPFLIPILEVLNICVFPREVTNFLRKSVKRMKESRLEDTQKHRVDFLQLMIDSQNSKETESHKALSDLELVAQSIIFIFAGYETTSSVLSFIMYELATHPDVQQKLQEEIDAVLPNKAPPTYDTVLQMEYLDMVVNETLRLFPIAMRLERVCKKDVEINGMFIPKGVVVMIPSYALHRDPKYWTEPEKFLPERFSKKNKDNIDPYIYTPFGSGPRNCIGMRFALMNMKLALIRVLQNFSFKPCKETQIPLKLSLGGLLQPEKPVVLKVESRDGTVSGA

CCN(Cc1ccc(Cl)nc1)/C(=C/[N+](=O)[O-])NC
Potency [1]: inconclusive: 28.2 µM [inhibitor, full curve]
Potency [2]: inactive
Potency [3]: inactive

CN(C)[C@@H]1C(=O)C(C(N)=O)=C(O)[C@@]2(O)C(=O)C3=C(O)c4c(O)cccc4[C@@](C)(O)[C@H]3C[C@@H]12
Potency [1]: inconclusive: 11.2 µM [inhibitor, partial curve, poor fit] and inconclusive: 150 nM [inhibitor, full curve]
Potency [2]: active: 15.5 µM

O=[N+]([O-])O[C@H]1CO[C@H]2[C@@H]1OC[C@H]2O[N+](=O)[O-]
Potency [1]: inconclusive: 11.2 µM [inhibitor, partial curve, poor fit]
Potency [4]: inactive

CC1(C)C(C=C(Cl)Cl)C1C(=O)OC(C#N)c1cccc(Oc2ccccc2)c1 (stereo unspecified)
Potency [1]: inconclusive: 3.16 µM [inhibitor, full curve, poor fit]
Potency [2]: inactive
Potency [3]: inconclusive: 9.77 µM [inhibitor, partial curve]

CC1Sc2c(C(=O)O)c(=O)c3cc(F)c(N4CCNCC4)cc3n21 (stereo unspecified)
Potency [1]: inconclusive: 3.16 µM [inhibitor, full curve, poor fit]
Potency [2]: inactive

COP(=S)(OC)Oc1ccc(Sc2ccc(OP(=S)(OC)OC)cc2)cc1
Potency [1]: inconclusive: 2.24 µM [inhibitor, full curve]
Potency [4]: active: 7.76 µM

CC(=O)OCC1=C(C(=O)O)N2C(=O)[C@@H](N)[C@H]2SC1
Potency [1]: inconclusive: 14.1 µM [inhibitor, partial curve, poor fit]
Potency [2]: active: 5.35 µM

CCO[C@H]1O[C@@H]2OC3(C)CC[C@H]4[C@H](C)CC[C@@H]([C@H]1C)[C@@]24OO3
Potency [1]: inconclusive: 31.6 µM [inhibitor, partial curve, poor fit]
Potency [2]: inactive

CC1N=C(N)OC1c1ccccc1 (stereo unspecified)
Potency [1]: inconclusive: 22.4 µM [inhibitor, single point]
Potency [2]: active: 4.92 µM
Potency [3]: inactive

O=C(O)CNC(=O)c1c(O)c2ccccc2n(Cc2ccccc2)c1=O
Potency [1]: inactive
Potency [4]: inactive
Potency [3]: inconclusive: 23.9 µM [inhibitor, single point]

COc1ccccc1N1CCNCC1
Potency [1]: inconclusive: 39.8 µM [inhibitor, partial curve]
Potency [2]: inactive
Potency [4]: inactive

CC(C)(C)NCC(O)c1cc(Cl)c(N)c(C(F)(F)F)c1 (stereo unspecified)
Potency [5]: inconclusive: 6.31 µM [inhibitor, partial curve]

CN1CCC(N(Cc2ccccc2)c2ccccc2)CC1
Potency [5]: inactive

CCNC(=O)CC1N=C(c2ccc(Cl)cc2)c2cc(OC)ccc2-n2c(C)nnc21 (stereo unspecified)
Potency [1]: inactive
Potency [6]: inconclusive: 31.6 µM [cytotoxic, partial curve, poor fit]

CCCCCCCCCC(CC)c1ccc(S(=O)(=O)O)cc1 (stereo unspecified)
Potency [5]: inconclusive: 39.8 µM [inhibitor, partial curve, poor fit]

C=CCC1=C(C)C(OC(=O)C2C(C=C(C)C)C2(C)C)CC1=O (stereo unspecified)
Potency [1]: inconclusive: 28.2 µM [inhibitor, single point]
Potency [6]: inconclusive: 35.5 µM [cytotoxic, partial curve, poor fit]

CC1(C)CC/C(=C/c2ccc(Cl)cc2)C1(O)Cn1cncn1 (stereo unspecified)
Potency [5]: inactive

CCOP(=S)(OCC)Oc1ccc2c(C)c(Cl)c(=O)oc2c1
Potency [5]: inconclusive: 14.1 µM [inhibitor, partial curve, poor fit]

CC[C@@H](CO)NC(=O)[C@@H]1C=C2c3cccc4[nH]cc(c34)C[C@H]2N(C)C1
Potency [1]: inactive
Potency [3]: inactive

C=CC(=O)NCNC(=O)C=C
Potency [5]: inconclusive: 35.5 µM [inhibitor, single point]

Cc1cccc(Cc2cnc[nH]2)c1C
Potency [1]: inconclusive: 5.62 µM [inhibitor, partial curve, poor fit]
Potency [3]: active: 0.123 µM

O=C(O)CCCc1ccc(N(CCCl)CCCl)cc1
Potency [5]: inactive

CC(Cc1ccc2c(c1)OCO2)NO (stereo unspecified)
Potency [5]: inactive

CCCCC(CC)COC(=O)c1ccccc1C(=O)OCC(CC)CCCC (stereo unspecified)
Potency [1]: inconclusive: 3.16 µM [inhibitor, full curve, poor fit]
Potency [3]: inconclusive: 19.4 µM [inhibitor, partial curve]

COc1cccc(C(=O)CCN[C@@H](C)[C@H](O)c2ccccc2)c1
Potency [5]: inconclusive: 35.5 µM [inhibitor, single point]
